# Measured values taken from ChEMBL document CHEMBL4888484, “Replenishing the malaria drug discovery pipeline: Screening and hit evaluation of the MMV Hit Generation Library 1 (HGL1) against asexual blood stage Plasmodium falciparum ,using a nano luciferase reporter read-out” (2022).
# The campaign covered roughly 150,000 compounds. About 540 (0.36%) showed an effect of 50% or more. The list shows a part of the results.
# Tested on: Plasmodium falciparum
# Assay: Primary screen in NF54 nanoGlo assay, in single point, at 2uM, 72h; a lower Z score goes with more inhibition
# Assay type: functional, Erythrocyte
# Settings: timepoint 72 hour
Structure (SMILES),% Inhibition [%],Z score
Cc1ccc(Nc2nc(C)c(C(=O)NCc3ccccn3)s2)c(C)c1,34,-3.87
O=C(Nc1ncc(Cc2ccc(Cl)cc2)s1)c1ccc2c(c1)OCCO2,30,-3.39
Cc1ccccc1[C@@H](NCc1nnc(C2CC2)n1C)C(C)(C)C,-6,0.93
Cc1occc1C(=O)NC1CCN(Cc2cnc(C(C)C)s2)CC1,29,-3.24
CC(C)C1OCCCC1CNC(=O)CN1CCc2ccccc2C1=O (stereo not drawn),2,-0.34
COc1ccc(C)cc1NC(=O)N1CC[C@H](CN2CCCCC2)C1,-14,1.54
Cc1cc(C)cc(CN2CCN(C(=O)Cn3nnnc3CN3CCCC3)CC2=O)c1,-4,0.39
CCS(=O)(=O)NCC(c1ccco1)c1ccco1,-20,2.9
CC(=O)Nc1nc(C(=O)N[C@@](C)(CO)C2CCCCC2)cs1,-5,0.98
Brc1cnc2c(N3CC[C@]4(CCOC4)C3)ccnc2c1,7,-0.75
Cn1cc(S(=O)(=O)N2CCOc3c2cccc3C(F)(F)F)cn1,-3,0.65
Cc1nonc1CC(=O)NCCc1cccc(Br)c1C,1,-0.2
C[C@H](NCC(=O)NC(=O)NC1CC1)c1ccc(F)c(Cl)c1,-2,0.2
Cc1nc(CN2CCC(c3ncon3)CC2)c2ccccn12,-10,1.97
O=C(CS(=O)(=O)C1CC1)N1CCc2ccsc2C1,-4,0.64
CS(=O)(=O)[C@@H]1C[C@@]1(C#N)COc1ccc(F)cc1F,-1,0.28
Cc1cc(C)cc(NC(N)=NC2CC2)c1,-3,0.35
C[C@H](NC(=O)c1cnc(Cc2c(Cl)cccc2Cl)nc1O)C1CC1,-1,0.17
COCc1nc2ccccc2c(C)c1C(=O)OCC(=O)NCC1(N2CCOCC2)CCCCC1,-7,1.02
Cc1cccc(C(=O)N2CCC[C@H](C(=O)N3CCN(C)CC3)C2)c1C,-11,1.02
O=C(N[C@@H]1c2ccccc2C[C@H]1O)c1cnc(C2CC2)[nH]c1=O,-8,1.09
Cc1cc(NC(=O)C(=O)NCC[C@H](O)c2ccco2)no1,-11,1.54
CCOc1ccccc1C(=O)N[C@H]1CCN(c2cc(-c3ccc(Cl)cc3)n[nH]2)C1,-16,1.63
CC(=O)N1CCCN(S(=O)(=O)c2cccs2)CC1,-12,2.3
